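Each compound was tested at five concentrations against cells in 96-well plates for 48 hours. At the TGI there is no net growth.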 Some entries of the source have several records that differ or are many. The list is limited to them. The source may hold further records. The tests behind the records often covered other concentration ranges, which the source does not state; some values may only mark the edge of a range.

Test systems include A549 NSCLC; CAKI-1 renal; EKVX NSCLC; HCT-15 colon; HL-60(TB) leukemia; HOP-62 NSCLC; HT29 colon; MCF7 breast; NCI-H23 lung; OVCAR-5 ovarian; OVCAR-8 ovarian; SK-MEL-28 melanoma; SNB-19 CNS; SW-620 colon.
Holding throughout (experiment): growth of human tumour cells (NCI), 48 h

On to `C[C@]12CC[C@@H]3c4ccc(OC(=O)N(CCCl)CCCl)cc4CC[C@H]3[C@@H]1CC[C@@H]2O`, for which the TGI with A549 NSCLC is 16.6 µM and 269 nM; with CAKI-1 renal, 12.9 µM and 371 nM; in the experiment with EKVX NSCLC, > 62.5 µM and 3.47 µM; in the experiment on HCT-15 colon it was 12.3 µM and 335 nM; in the experiment with HL-60(TB) leukemia it was 3.47 µM and 251 nM; in the experiment with HOP-62 NSCLC, 13 µM and 406 nM. Besides, the TGI is 10.2 µM and 53.6 nM in the experiment with HT29 colon; 30.5 µM and 265 nM with MCF7 breast; 12.4 µM and 251 nM in the experiment on NCI-H23 lung; 39.4 µM and 2.81 µM in the experiment on OVCAR-5 ovarian; 22.5 µM and 180 nM in the experiment on OVCAR-8 ovarian; 18.8 µM and 259 nM in the experiment with SK-MEL-28 melanoma. Further, the TGI is 37.3 µM and 3.36 µM in the experiment with SNB-19 CNS; 16.6 µM and 1.38 µM in the experiment with SW-620 colon.

Source of the values: PubChem BioAssay (NCI).
